Results: patent US9023789B2, “Amylin analogs and pharmaceutical compositions thereof” (Novo Nordisk A/S, priority 2012, dated 2015)
The name of at least one read-out is uncertain. Numbered stars: 1 amine (or outer) side, 2 acyl side, 3 side chain; on linkers, the order of the positions; unused ones are H or OH. Bridge positions count the residues as written; N and C are the ends. Side chains are listed from the residue outwards. Peptide text beside a SMILES is read from it. * marks the point of attachment. C20 diacid = O=C(O)CCCCCCCCCCCCCCCCCCC(=O)*; γGlu = O=C(O)[C@H](CCC(=O)[*:2])N[*:1]; AEEA = NCCOCCOCC(=O)O

test: ASSAY (III) ThT fibrillation assay for physical stability; type: physicochemical
How it was run: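 Physical stability scored by ThT fluorescence (444 nm excitation, 485 nm emission) tracked every 20 min during 37 °C incubation with 960 rpm shaking, ThT at 1 μM final. Values are replicate means with SD at chosen times; HPLC against pramlintide standard gives initial and post-assay soluble concentrations.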

Structure (SMILES) | ThT pH 4.0 recovery (%)
CC[C@H](C)[C@H](NC(=O)[C@H](C)NC(=O)CNC(=O)[C@H](Cc1ccccc1)NC(=O)[C@H](CC(N)=O)NC(=O)[C@@H]1CCCN1C(=O)[C@H](CO)NC(=O)[C@H](CO)NC(=O)[C@H](Cc1c[nH]cn1)NC(=O)[C@H](CCCNC(=N)N)NC(=O)[C@H](CC(C)C)NC(=O)[C@H](Cc1ccccc1)NC(=O)[C@@H](NC(=O)[C@H](C)NC(=O)[C@H](CC(C)C)NC(=O)[C@H](CCCNC(=N)N)NC(=O)[C@H](CCC(N)=O)NC(=O)[C@@H](NC(=O)[C@H](C)NC(=O)[C@@H]1CSSC[C@H](NC(=O)[C@@H](N)CCCCNC(=O)COCCOCCNC(=O)CC[C@H](NC(=O)CCCCCCCCCCCCCCCCCCC(=O)O)C(=O)O)C(=O)N[C@@H](CC(N)=O)C(=O)N[C@@H]([C@@H](C)O)C(=O)N[C@@H](C)C(=O)N[C@@H]([C@@H](C)O)C(=O)N1)[C@@H](C)O)[C@@H](C)O)C(=O)N1CCC[C@H]1C(=O)N[C@@H](CO)C(=O)N[C@@H](CO)C(=O)N[C@H](C(=O)N1CCC[C@H]1C(=O)N[C@H](C(=O)NCC(=O)N[C@@H](CO)C(=O)N[C@@H](CC(N)=O)C(=O)N[C@H](C(=O)N[C@@H](Cc1ccc(O)cc1)C(N)=O)[C@@H](C)O)C(C)C)[C@@H](C)O [Example 75] (H-K([AEEA-γGlu-C20 diacid])CNTATCATQRLATFLRHSSPNFGAIPSSTPVGSNTY-NH2; disulfide 2-7 (inferred); N-terminus assumed) | 12
CC[C@H](C)[C@H](NC(=O)[C@H](C)NC(=O)CNC(=O)[C@H](Cc1ccccc1)NC(=O)[C@H](CC(N)=O)NC(=O)[C@@H]1CCCN1C(=O)[C@H](CO)NC(=O)[C@H](CO)NC(=O)[C@H](Cc1c[nH]cn1)NC(=O)[C@H](CCCNC(=N)N)NC(=O)[C@H](CC(C)C)NC(=O)[C@H](Cc1ccccc1)NC(=O)[C@H](CC(N)=O)NC(=O)[C@H](C)NC(=O)[C@H](CC(C)C)NC(=O)[C@H](CCCNC(=N)N)NC(=O)[C@H](CCC(N)=O)NC(=O)[C@@H](NC(=O)[C@H](C)NC(=O)[C@@H]1CSSC[C@H](NC(=O)[C@@H](N)CCCCNC(=O)COCCOCCNC(=O)CC[C@H](NC(=O)CCCCCCCCCCCCCCCCCCC(=O)O)C(=O)O)C(=O)N[C@@H](CC(N)=O)C(=O)N[C@@H]([C@@H](C)O)C(=O)N[C@@H](C)C(=O)N[C@@H]([C@@H](C)O)C(=O)N1)[C@@H](C)O)C(=O)N1CCC[C@H]1C(=O)N[C@@H](CO)C(=O)N[C@@H](CO)C(=O)N[C@H](C(=O)N[C@@H](CC(N)=O)C(=O)N[C@H](C(=O)NCC(=O)N[C@@H](Cc1c[nH]cn1)C(=O)N[C@@H](CC(N)=O)C(=O)N[C@H](C(=O)N[C@@H](Cc1ccc(O)cc1)C(N)=O)[C@@H](C)O)C(C)C)[C@@H](C)O [Example 76] (H-K([AEEA-γGlu-C20 diacid])CNTATCATQRLANFLRHSSPNFGAIPSSTNVGHNTY-NH2; disulfide 2-7; N-terminus assumed) | 31
CC[C@H](C)[C@H](NC(=O)[C@H](C)NC(=O)CNC(=O)[C@H](Cc1ccccc1)NC(=O)[C@H](CC(N)=O)NC(=O)[C@@H]1CCCN1C(=O)[C@H](CO)NC(=O)[C@H](CO)NC(=O)[C@H](Cc1c[nH]cn1)NC(=O)[C@H](CCCNC(=N)N)NC(=O)[C@H](CC(C)C)NC(=O)[C@H](Cc1ccccc1)NC(=O)[C@H](CC(N)=O)NC(=O)[C@H](C)NC(=O)[C@H](CC(C)C)NC(=O)[C@H](CCCNC(=N)N)NC(=O)[C@H](CCC(N)=O)NC(=O)[C@@H](NC(=O)[C@H](C)NC(=O)[C@@H]1CSSC[C@H](NC(=O)[C@@H](N)CCCCNC(=O)CC[C@H](NC(=O)CCCCCCCCCCCCCCCCCCC(=O)O)C(=O)O)C(=O)N[C@@H](CC(N)=O)C(=O)N[C@@H]([C@@H](C)O)C(=O)N[C@@H](C)C(=O)N[C@@H]([C@@H](C)O)C(=O)N1)[C@@H](C)O)C(=O)N1CCC[C@H]1C(=O)N[C@@H](CO)C(=O)N[C@@H](CO)C(=O)N[C@H](C(=O)N[C@@H](CC(N)=O)C(=O)N[C@H](C(=O)NCC(=O)N[C@@H](Cc1c[nH]cn1)C(=O)N[C@@H](CC(N)=O)C(=O)N[C@H](C(=O)N[C@@H](Cc1ccc(O)cc1)C(N)=O)[C@@H](C)O)C(C)C)[C@@H](C)O [Example 77] | 64
CC[C@H](C)[C@H](NC(=O)[C@H](C)NC(=O)CNC(=O)[C@H](Cc1ccccc1)NC(=O)[C@H](CC(N)=O)NC(=O)[C@@H]1CCCN1C(=O)[C@H](CO)NC(=O)[C@H](CO)NC(=O)[C@H](Cc1c[nH]cn1)NC(=O)[C@H](CCCNC(=N)N)NC(=O)[C@H](CC(C)C)NC(=O)[C@H](Cc1ccccc1)NC(=O)[C@H](CC(N)=O)NC(=O)[C@H](C)NC(=O)[C@H](CC(C)C)NC(=O)[C@H](CCCNC(=N)N)NC(=O)[C@H](CCC(N)=O)NC(=O)[C@@H](NC(=O)[C@H](C)NC(=O)[C@@H]1CSSC[C@H](NC(=O)[C@@H](N)CCCCNC(=O)COCCOCCNC(=O)CC[C@H](NC(=O)CCCCCCCCCCCCCCCCCCC(=O)O)C(=O)O)C(=O)N[C@@H](CC(N)=O)C(=O)N[C@@H]([C@@H](C)O)C(=O)N[C@@H](C)C(=O)N[C@@H]([C@@H](C)O)C(=O)N1)[C@@H](C)O)C(=O)N1CCC[C@H]1C(=O)N[C@@H](CO)C(=O)N[C@@H](CO)C(=O)N[C@H](C(=O)N[C@@H](CC(N)=O)C(=O)N[C@H](C(=O)NCC(=O)N[C@@H](CCCNC(=N)N)C(=O)N[C@@H](CC(N)=O)C(=O)N[C@H](C(=O)N[C@@H](Cc1ccc(O)cc1)C(N)=O)[C@@H](C)O)C(C)C)[C@@H](C)O [Example 78] (H-K([AEEA-γGlu-C20 diacid])CNTATCATQRLANFLRHSSPNFGAIPSSTNVGRNTY-NH2; disulfide 2-7 (inferred)) | 15
CC[C@H](C)[C@H](NC(=O)[C@H](C)NC(=O)CNC(=O)[C@H](Cc1ccccc1)NC(=O)[C@H](CC(N)=O)NC(=O)[C@@H]1CCCN1C(=O)[C@H](CO)NC(=O)[C@H](CO)NC(=O)[C@H](Cc1c[nH]cn1)NC(=O)[C@H](CCCNC(=N)N)NC(=O)[C@H](CC(C)C)NC(=O)[C@H](Cc1ccccc1)NC(=O)[C@H](CC(N)=O)NC(=O)[C@H](C)NC(=O)[C@H](CC(C)C)NC(=O)[C@H](CCCNC(=N)N)NC(=O)[C@H](CCC(N)=O)NC(=O)[C@@H](NC(=O)[C@H](C)NC(=O)[C@@H]1CSSC[C@H](NC(=O)[C@@H](N)CCCCNC(=O)CC[C@H](NC(=O)CCCCCCCCCCCCCCCCCCC(=O)O)C(=O)O)C(=O)N[C@@H](CC(N)=O)C(=O)N[C@@H]([C@@H](C)O)C(=O)N[C@@H](C)C(=O)N[C@@H]([C@@H](C)O)C(=O)N1)[C@@H](C)O)C(=O)N1CCC[C@H]1C(=O)N[C@@H](CO)C(=O)N[C@@H](CO)C(=O)N[C@H](C(=O)N[C@@H](CC(N)=O)C(=O)N[C@H](C(=O)NCC(=O)N[C@@H](CCCNC(=N)N)C(=O)N[C@@H](CC(N)=O)C(=O)N[C@H](C(=O)N[C@@H](Cc1ccc(O)cc1)C(N)=O)[C@@H](C)O)C(C)C)[C@@H](C)O [Example 79] (H-K([γGlu-C20 diacid])CNTATCATQRLANFLRHSSPNFGAIPSSTNVGRNTY-NH2; disulfide 2-7 (inferred); N-terminus assumed) | 81
CC[C@H](C)[C@H](NC(=O)[C@H](C)NC(=O)CNC(=O)[C@H](Cc1ccccc1)NC(=O)[C@H](CC(N)=O)NC(=O)[C@@H]1CCCN1C(=O)[C@H](CO)NC(=O)[C@H](CO)NC(=O)[C@H](Cc1c[nH]cn1)NC(=O)[C@H](CCCNC(=N)N)NC(=O)[C@H](CC(C)C)NC(=O)[C@H](Cc1ccccc1)NC(=O)[C@H](Cc1c[nH]cn1)NC(=O)[C@H](C)NC(=O)[C@H](CC(C)C)NC(=O)[C@H](CCCNC(=N)N)NC(=O)[C@H](CCC(N)=O)NC(=O)[C@@H](NC(=O)[C@H](C)NC(=O)[C@@H]1CSSC[C@H](NC(=O)[C@@H](N)CCCCNC(=O)COCCOCCNC(=O)CC[C@H](NC(=O)CCCCCCCCCCCCCCCCCCC(=O)O)C(=O)O)C(=O)N[C@@H](CC(N)=O)C(=O)N[C@@H]([C@@H](C)O)C(=O)N[C@@H](C)C(=O)N[C@@H]([C@@H](C)O)C(=O)N1)[C@@H](C)O)C(=O)N1CCC[C@H]1C(=O)N[C@@H](CO)C(=O)N[C@@H](CO)C(=O)N[C@H](C(=O)N[C@@H](CC(N)=O)C(=O)N[C@H](C(=O)NCC(=O)N[C@@H](Cc1c[nH]cn1)C(=O)N[C@@H](CC(N)=O)C(=O)N[C@H](C(=O)N[C@@H](Cc1ccc(O)cc1)C(N)=O)[C@@H](C)O)C(C)C)[C@@H](C)O [Example 80] (H-K([AEEA-γGlu-C20 diacid])CNTATCATQRLAHFLRHSSPNFGAIPSSTNVGHNTY-NH2; disulfide 2-7; N-terminus assumed) | 90
CC[C@H](C)[C@H](NC(=O)[C@H](C)NC(=O)CNC(=O)[C@H](Cc1ccccc1)NC(=O)[C@H](CC(N)=O)NC(=O)[C@@H]1CCCN1C(=O)[C@H](CO)NC(=O)[C@H](CO)NC(=O)[C@H](Cc1c[nH]cn1)NC(=O)[C@H](CCCNC(=N)N)NC(=O)[C@H](CC(C)C)NC(=O)[C@H](Cc1ccccc1)NC(=O)[C@H](Cc1c[nH]cn1)NC(=O)[C@H](C)NC(=O)[C@H](CC(C)C)NC(=O)[C@H](CCCNC(=N)N)NC(=O)[C@H](CCC(N)=O)NC(=O)[C@@H](NC(=O)[C@H](C)NC(=O)[C@@H]1CSSC[C@H](NC(=O)[C@@H](N)CCCCNC(=O)CC[C@H](NC(=O)CCCCCCCCCCCCCCCCCCC(=O)O)C(=O)O)C(=O)N[C@@H](CC(N)=O)C(=O)N[C@@H]([C@@H](C)O)C(=O)N[C@@H](C)C(=O)N[C@@H]([C@@H](C)O)C(=O)N1)[C@@H](C)O)C(=O)N1CCC[C@H]1C(=O)N[C@@H](CO)C(=O)N[C@@H](CO)C(=O)N[C@H](C(=O)N[C@@H](CC(N)=O)C(=O)N[C@H](C(=O)NCC(=O)N[C@@H](Cc1c[nH]cn1)C(=O)N[C@@H](CC(N)=O)C(=O)N[C@H](C(=O)N[C@@H](Cc1ccc(O)cc1)C(N)=O)[C@@H](C)O)C(C)C)[C@@H](C)O [Example 81] (H-K([γGlu-C20 diacid])CNTATCATQRLAHFLRHSSPNFGAIPSSTNVGHNTY-NH2; disulfide 2-7; N-terminus assumed) | 93
